# In PubChem BioAssay AID488969 (Vanderbilt High Throughput Screening Facility, 2010):
# In all, about 110,000 compounds were measured (“z-score”: median about -0.1, highest 2% from about 2 on). The list shows a part of the results. Calls of active or inactive are those of the source.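 The calls were made as follows: active = z-score in the third read window above 3 or below -3; inactive = the rest.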
# Biological target: Metabotropic glutamate receptor 8 (Rattus norvegicus) (UniProt P70579)
# Assay: rat mGluR8 modulators via GIRK flux, primary screen, cell-based, thallium flux, HTS (AID 488969)
# Details: HEK293 rat mGluR8, GIRK (G protein-gated inwardly rectifying potassium channel) thallium flux, FluoZin2; at 10 µM; stronger effect = higher value; submaximal glutamate (EC20) added with thallium
# UniProt P70579, sequence (P70579 whole entry, looked up): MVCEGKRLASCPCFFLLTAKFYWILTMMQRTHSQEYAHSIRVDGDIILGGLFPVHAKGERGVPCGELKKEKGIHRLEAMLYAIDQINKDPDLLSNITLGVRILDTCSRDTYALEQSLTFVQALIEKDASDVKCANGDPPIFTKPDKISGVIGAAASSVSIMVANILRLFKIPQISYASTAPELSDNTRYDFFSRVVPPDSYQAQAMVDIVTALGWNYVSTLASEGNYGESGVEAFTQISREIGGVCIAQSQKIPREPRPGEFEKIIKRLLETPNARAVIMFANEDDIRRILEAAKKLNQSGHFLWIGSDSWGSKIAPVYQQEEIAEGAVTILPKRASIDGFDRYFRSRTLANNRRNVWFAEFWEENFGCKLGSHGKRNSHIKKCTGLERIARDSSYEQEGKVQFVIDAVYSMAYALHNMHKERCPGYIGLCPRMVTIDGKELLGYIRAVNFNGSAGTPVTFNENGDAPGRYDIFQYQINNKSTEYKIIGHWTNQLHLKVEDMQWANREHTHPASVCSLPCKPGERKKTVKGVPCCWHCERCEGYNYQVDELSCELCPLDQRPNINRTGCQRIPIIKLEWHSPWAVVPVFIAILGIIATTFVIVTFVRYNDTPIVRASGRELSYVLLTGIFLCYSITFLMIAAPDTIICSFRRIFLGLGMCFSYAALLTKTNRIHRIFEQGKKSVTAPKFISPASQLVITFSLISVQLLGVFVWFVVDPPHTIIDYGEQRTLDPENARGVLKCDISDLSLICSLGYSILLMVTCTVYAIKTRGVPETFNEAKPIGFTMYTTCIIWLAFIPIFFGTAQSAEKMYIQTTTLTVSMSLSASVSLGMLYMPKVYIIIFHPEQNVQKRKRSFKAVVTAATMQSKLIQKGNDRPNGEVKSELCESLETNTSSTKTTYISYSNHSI
row,SMILES,z-score
1,Cc1ccc(C)c(OCC(=O)NCCNC(=O)COc2cc(C)ccc2C)c1,-0.05
2,CCc1cc2c(=O)c(-c3nc4ccccc4[nH]3)coc2cc1OC(=O)N1CCOCC1,-0.243
3,Cc1ccc2nsnc2c1S(=O)(=O)NCc1ccncc1,-0.302
4,Cc1oc2cc(O)ccc2c(=O)c1Oc1ccccc1,0.344
5,O=C1c2cccc(OCc3ccc(F)cc3)c2CCN1Cc1ccc(F)cc1,0.17
6,CC(=O)c1c(C)[nH]c(C(=O)CSc2nnc(-c3ccccc3)o2)c1C,-0.229
7,COc1ccccc1CNC(=O)COC(=O)c1n[nH]c2ccccc12,-0.985
8,O=C(O)c1cc2ccccc2c(=O)s1,-0.259
9,CC(CC(=O)Nc1ccc(C(N)=O)cc1)c1ccccc1 (configuration not stated),-1.46
10,COC(=O)C(C(=O)OC)N1C(=O)CCC1=O,0.512
11,CC(C)C(=O)Nc1ccc(Cc2ccc(NC(=O)C(C)C)c(O)c2)cc1O,-0.234
12,CC1=NN(c2ccccc2)C(=O)/C1=C\N1CC(C)OC(C)C1 (configuration not stated),-0.187
13,Cc1ccc(S(=O)(=O)/N=C2/C=C(C3C(=O)CC(C)(C)CC3=O)C(=O)c3ccccc32)cc1,0.359
14,Cc1cc2ccccc2c(=O)n1CC(=O)NCC(=O)N1CCCC1,-0.263
15,Cc1cc(C)nc(Sc2c(F)c(F)c(C(F)(F)F)c(F)c2F)n1,0.0241
16,COc1ccc(Cc2nnc(NC(=O)CSc3ccc(Cl)cc3)s2)cc1OC,0.255
17,C/C(=N\N=C\c1ccccc1)c1nnn(-c2nonc2N)c1C,-0.155
18,CCCCn1c(-c2csc3c2CCC(C)C3)n[nH]c1=S (configuration not stated),active: 7.55
19,Cc1ccc(C)c(OCCCCn2ccnc2)c1,0.0554
20,O=C1C2CCCN2C(c2ccc(F)cc2)N1c1nccs1 (configuration not stated),0.014
21,CC(=O)Nc1ccc(S(=O)(=O)N2CCNC(=O)CC2)cc1,0.155
22,CCN(CC)S(=O)(=O)c1cccc(-c2nnc(SCC(=O)NC3CCCCCC3)n2N)c1,-1.15
23,CCC(C)N1C(=O)S/C(=C/c2ccc(Sc3nc4ccccc4[nH]3)o2)C1=O (configuration not stated),-0.59

row,SMILES,z-score
1,Cc1ccc(/C=N/c2sc3c(c2C#N)CCCCC3)o1,-0.0448
2,CC1(C)Cc2c(cnn2-c2ccccc2)C(=O)/C1=N\NC(=O)c1ccccc1,0.0883
3,COc1ccc(N(CC(=O)NCCC2=CCCCC2)S(C)(=O)=O)cc1OC,0.274
4,CCOC(=O)c1nn(-c2ccccc2)c(=O)c(C#N)c1C,-0.186
5,Cc1cc(Nc2ccc(C(=O)O)cc2)n2nc(C)nc2n1,0.915
6,CCC(C)NC(=O)CSc1nc2n[nH]c(C)c2c(=N)n1-c1ccc(OC)cc1 (configuration not stated),0.58
7,CC1(C(=O)O)CCC(C(=O)N2CCOCC2)C1(C)C (configuration not stated),-0.108
8,CC(=O)NC1CSCC1OC(C)=O (configuration not stated),-0.019
9,COc1cccc(NS(=O)(=O)c2ccc(NC(C)=O)cc2)c1,-0.261
10,CC1CCN(c2nc(-c3ccc(F)cc3)cc(C(F)(F)F)n2)CC1,-0.266
11,COc1ccc(NC(=O)CSc2nc(NS(=O)(=O)c3ccc(C)cc3)cc(=O)[nH]2)cc1,-0.232
12,O=C(Nc1ccc(S(=O)(=O)N2CCc3ccccc32)cc1)c1ccc2c(c1)OCO2,-1.01
13,CCOC(=O)Cc1csc(NC(=O)c2c(-c3c(Cl)cccc3Cl)noc2C)n1,-0.498
14,Cc1ccc(N(CC(=O)Nc2ccc(-c3nc4ccc(C)cc4s3)cc2)S(C)(=O)=O)cc1,-0.0874
15,NC(=O)C(c1ccc(Cl)cc1)c1ccc(Sc2ccccc2)nn1 (configuration not stated),-0.154
16,CC1CC(C)(C)NC(=S)N1CCCC(=O)N1CCN(c2ccccc2F)CC1 (configuration not stated),0.957
17,Cc1ccc(S(=O)(=O)Cn2nnnc2C(c2ccccc2)N2CCN(c3ccccc3)CC2)cc1 (configuration not stated),-0.0633
18,O=C(Oc1ccc(N(Cc2cccs2)C2=NS(=O)(=O)c3ccccc32)cc1)c1ccco1,-0.18
19,Cc1ccc(NS(=O)(=O)c2ccc(CCC(=O)N3CCOCC3)cc2)cc1,-0.0297
20,CCCCC(=O)OCC(=O)c1[nH]c(C)c(C(=O)OCC)c1C,-0.205
21,O=C(O)CN1CCN(Cc2ccccc2Cl)C1=O,-0.0718
22,O=C(/C=C/c1ccc(Cl)cc1)N(Cc1ccccc1)C1CCS(=O)(=O)C1 (configuration not stated),-0.709
23,Cc1cc([N+](=O)[O-])c(NCCCCCCO)c([N+](=O)[O-])c1,-0.226

row,SMILES,z-score
1,N#CC(=C=[N-])c1nc2ccccc2nc1-[n+]1ccccc1,-0.219
2,CSc1nnc2c(n1)OC(c1cccn1C)N(C(C)=O)c1ccccc1-2 (configuration not stated),-0.0952
3,Cn1ncc(Br)c1C(=O)N1CCOCC1,-0.293
4,CC(CC(=O)N1CCc2ccccc21)c1ccccc1 (configuration not stated),-0.596
5,CCCn1c(NCc2cc(C)ccc2O)nc2ccccc21,-0.844
6,O=C1Nc2ccc(S(=O)(=O)N3CCOCC3)c3cccc1c23,0.858
7,COC(=O)c1ccc(NC(=O)C23CC4CC(C2)CC(n2cncn2)(C4)C3)cc1,-0.166
8,CCOC(=O)N1CCN(C(=O)COc2ccc(Cl)cc2C)CC1,-0.175
9,N#Cc1c(-c2ccccc2)c(-c2ccccc2)nn(CC(=O)NNC(=O)Nc2ccc(Cl)c(Cl)c2)c1=O,0.23
10,NC(=O)c1ccccc1NC(=O)Nc1cccc(Cl)c1Cl,-0.0164
11,CC1(C)Cc2noc(N)c2C(C)(C)N1OC(=O)c1cccs1,-0.388
12,OC(COCCC12CC3CC(CC(C3)C1)C2)CN1CCCCC1 (configuration not stated),-0.152
13,O=C(O)CC(NC(=S)NCc1ccccc1)C(=O)O (configuration not stated),-0.297
14,Cc1ccc(NC(=O)CSCC(=O)Nc2ncc3c(n2)CC(c2ccco2)CC3=O)cc1 (configuration not stated),-0.196
15,CSCCC(NS(=O)(=O)c1ccc(Cl)cc1)C(=O)OCC(=O)N(C(C)C)C(C)C (configuration not stated),-0.294
16,CC(C)OCCCNC(=O)C(C)Oc1ccccc1 (configuration not stated),-0.305
17,S=C(NCCSCc1ccc(Cl)cc1)Nc1ccccc1,0.852
18,COc1cccc(C(=O)NC2=NCCS2)c1OC,-0.64
19,O=C(NCCc1ccccc1)c1nc2nc(-c3cccs3)cc(C(F)(F)F)n2n1,-1.35
20,Cc1cc(/C=N/NC(=O)c2ccc(CN3CCOCC3)cc2)c(C)n1-c1ccccc1,0.0571
21,CC(C)CCn1c(Oc2ccccc2Cl)nc2c1c(=O)n(C)c(=O)n2C,-0.1
22,CC(C)C(c1nnnn1Cc1ccccc1)N1CCN(Cc2ccco2)CC1 (configuration not stated),0.49
23,CCOC(=O)c1[nH]c(C)c(C(=O)OCC(=O)N2CC(=O)Nc3ccccc32)c1C,-0.201

row,SMILES,z-score
1,CCN(CC)S(=O)(=O)c1ccc(N2CCOCC2)c(NS(=O)(=O)c2ccc(C(C)C)cc2)c1,-0.0821
2,CCOc1ccc(CCNC(=O)CSCc2ccc(C)cc2)cc1OCC,-0.118
3,Cc1cc(=O)oc(C)c1C(=O)NC1CC(C)(C)NC(C)(C)C1,0.378
4,N/C(=N\OC(=O)COc1ccc(Br)cc1)c1cccnc1,-0.497
5,CCOC(=O)Nc1ccc2ncn(C)c(=O)c2c1,0.00465
6,O=C(c1cccs1)N1CCCc2ccccc21,0.147
7,FC(F)(F)c1cccc(Oc2cc(C(F)(F)F)nc(-c3ccccn3)n2)c1,0.0345
8,COc1ccc2c(c1)c1nc3ccccc3nc1n2Cc1ccc(OC)c(OC)c1,-0.548
9,CC1=CC(C)(C)N(S(=O)(=O)c2ccc(F)cc2)c2ccccc21,0.525
10,CCOCCCNC(=O)c1cn(C)c(=O)c2cc(OC)c(OC)cc12,-0.303
11,O=C(c1cc(-c2ccc(Cl)cc2)n(-c2ccc(Cl)cc2)n1)N1CCOCC1,-0.393
12,COc1cccc2cc(C(=O)Oc3ccc(NC(C)=O)cc3)c(=O)oc12,-1.16
13,CCOc1ccc(Nc2oc(-c3ccc(Cl)cc3)nc2C#N)cc1,-0.151
14,Cc1nc2cc(NC(=O)CCS(=O)(=O)c3ccccc3)ccc2s1,1.07
15,CC(=O)NC(C)C12CC3CC(CC(C(=O)O)(C3)C1)C2 (configuration not stated),0.0652
16,COc1ccc(/C=N/n2cncn2)cc1COc1ccc(NC(C)=O)cc1,-0.985
17,COc1cc(OC)cc(C(=O)Nc2nnc(NC(=S)Nc3ccccc3)s2)c1,-0.0492
18,CCOc1ccc(NC(=S)NN2C(C)CCCC2C)cc1 (configuration not stated),1.75
19,CSc1nc(N(C)NC(=O)c2cccc(C)c2)c2ccccc2n1,-0.486
20,CCOc1ccc(C(=O)C(c2ccccc2)N2CCOCC2)cc1 (configuration not stated),-0.418
21,c1ccc(-c2nnc3ccc(N4CCCC4)nn23)cc1,active: -4.38
22,CNC(=O)Cn1c(=O)n(C)c2ccccc21,0.0314
23,Cc1ccccc1NC(=O)CSc1ccc(-c2ccco2)nn1,1.06

row,SMILES,z-score
1,Cc1ccc(C2CC(c3ccccc3Cl)n3nc(N)nc3N2)cc1 (configuration not stated),0.387
2,O=C(COc1ccccc1)NC(=S)Nc1cccc([N+](=O)[O-])c1,active: 11.8
3,CCC1(C)Cc2ccccc2-c2nc(NCCO)[nH]c(=O)c21 (configuration not stated),0.239
4,COc1ccc(NC(=O)CSc2nc3ccccc3n2-c2ccccc2)c([N+](=O)[O-])c1,-0.384
5,CNC(=O)CC1C(=O)N(C)C(=S)N1NC(=O)c1ccc(Cl)cc1 (configuration not stated),0.139
6,CC(=O)Nc1cc(OC(C)=O)c2nonc2c1OC(C)=O,0.236
7,O=C(NCCNS(=O)(=O)c1ccccc1Cl)c1cc(OCC(F)(F)F)ccc1OCC(F)(F)F,-0.393
8,CC(C)OCCCn1c(SCC(=O)N2CCc3ccccc32)nc2ccccc2c1=O,0.43
9,CCOc1ccc(/C(O)=C/C(=O)C(=O)Nc2ccc(S(=O)(=O)NC(C)=O)cc2)cc1,-0.2
10,O=C(O)CCn1ccnc1-c1ccccc1,0.126
11,CC1CCN(C(=O)CCc2ccc(S(=O)(=O)NC(C)C)cc2)CC1,0.258
12,CCOc1nc(-c2ccccc2)ccc1-c1noc(-c2ccco2)n1,0.468
13,CCn1c(SCc2ccccc2Cl)nc2ccccc21,0.866
14,Cc1ccnc(SCC(=O)c2cccc([N+](=O)[O-])c2)n1,0.317
15,CCOC(=O)C1NC(=O)CC1c1ccccc1 (configuration not stated),-0.425
16,Cc1nc([N+](=O)[O-])c(Br)n1CC(=O)c1ccc2ccccc2c1,-0.244
17,N#Cc1cc(-c2ccccc2)cnc1Sc1ccc(Cl)cc1,-0.124
18,CSc1nc2ccc(NC(=O)c3ccco3)cc2s1,-0.436
19,O=C(CN1CCc2[nH]c3ccccc3c2C1)N1CCCCC1,-0.261
20,Cc1c(-c2ccc(F)cc2)nc(N)c(C#N)c1-c1ccco1,-0.164
